Positions count from the first letter of the chain named. Each block holds one binder with its values, some of them ahead of it.
Key:
[1] = target: T1, biotinylated human CD98 antigen (human, UniProt P08195 105-529, biotinylated with EZ-Link NHS-PEG4-Biotin (for ELISA)); assay: ELISA, immobilised biotinylated human CD98, anti-human IgG-HRP, chemiluminescence; without protease
T1 construct: extracellular domain
T1 sequence (looked up): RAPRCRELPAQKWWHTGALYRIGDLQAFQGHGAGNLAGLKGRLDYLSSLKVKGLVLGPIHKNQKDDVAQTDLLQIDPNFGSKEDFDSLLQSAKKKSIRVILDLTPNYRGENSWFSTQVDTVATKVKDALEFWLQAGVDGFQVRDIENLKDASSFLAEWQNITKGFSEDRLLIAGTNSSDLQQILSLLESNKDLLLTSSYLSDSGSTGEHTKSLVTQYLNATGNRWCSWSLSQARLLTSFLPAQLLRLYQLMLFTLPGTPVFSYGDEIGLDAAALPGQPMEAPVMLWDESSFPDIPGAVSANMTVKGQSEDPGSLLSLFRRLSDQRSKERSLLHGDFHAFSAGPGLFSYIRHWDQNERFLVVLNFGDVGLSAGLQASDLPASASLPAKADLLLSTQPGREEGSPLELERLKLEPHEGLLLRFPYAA

[2] = target: T1, biotinylated human CD98 antigen; assay: ELISA, immobilised biotinylated human CD98, anti-human IgG-HRP, chemiluminescence; antibody pre-incubated with MMP9
[3] = target: T1, biotinylated human CD98 antigen; assay: ELISA, immobilised biotinylated human CD98, anti-human IgG-HRP, chemiluminescence; antibody pre-incubated with CAPN1
[4] = target: T1, biotinylated human CD98 antigen; assay: ELISA, immobilised biotinylated human CD98, anti-human IgG-HRP, chemiluminescence; without protease; remark: listed apart in the source
[5] = target: T1, biotinylated human CD98 antigen; assay: ELISA, immobilised biotinylated human CD98, anti-human IgG-HRP, chemiluminescence; antibody pre-incubated with MMP9; remark: listed apart in the source
[6] = target: T1, biotinylated human CD98 antigen; assay: ELISA, immobilised biotinylated human CD98, anti-human IgG-HRP, chemiluminescence; antibody pre-incubated with CAPN1; remark: listed apart in the source
[7] = target: T1, biotinylated human CD98 antigen; assay: ELISA, immobilised biotinylated human CD98, anti-human IgG-HRP, chemiluminescence; without protease; remark: listed apart in the source
[8] = target: T1, biotinylated human CD98 antigen; assay: ELISA, immobilised biotinylated human CD98, anti-human IgG-HRP, chemiluminescence; antibody pre-incubated with uPA
[9] = target: T1, biotinylated human CD98 antigen; assay: ELISA, immobilised biotinylated human CD98, anti-human IgG-HRP, chemiluminescence; antibody pre-incubated with CAPN1; remark: listed apart in the source

EC50 (read off the curve) [1]: ~100 nM | EC50 (read off the curve) [2]: ~0.9 nM | EC50 (read off the curve) [3]: ~3 nM
B1: MhM1023-M1 (antibody)
heavy: QVQLVQSGAEVKKPGASVKVSCKASGAAFSNYLIEWVRQAPGQGLEWMGVINPGSGVTNYNEKFKGRVTITADTSTSTAYMELSSLRSEDTAVYYCARAEAWFAYWGQGTLVTVSSASTKGPSVFPLAPSSKSTSGGTAALGCLVKDYFPEPVTVSWNSGALTSGVHTFPAVLQSSGLYSLSSVVTVPSSSLGTQTYICNVNHKPSNTKVDKRV[human IgG1 Fc not shown]
light: GNFYHQYPWPLEILGSGGGGSPLGLAGGGPLFAAPGGSDIVMTQSPDSLAVSLGERATINCKSSQSLLYSSNQKNYLAWYQQKPGQPPKLLIYWASTRESGVPDRFSGSGSGTDFTLTISSLQAEDVAVYYCQRYYGYPWTFGQGTKVEIKRTVAAPSVFIFPPSDEQLKSGTASVVCLLNNFYPREAKVQWKVDNALQSGNSQESVTEQDSKDSTYSLSSTLTLSKADYEKHKVYACEVTHQGLSSPVTKSFNRGEC
notes: Anti-CD98 masked antibody; MMP9 substrate and CAPN substrate

EC50 (read off the curve) [4]: ~100 nM | EC50 (read off the curve) [5]: ~0.6 nM | EC50 (read off the curve) [6]: ~30 nM
B2: MhM1022-M1 (antibody)
heavy: B1 heavy
light: B1 light with P30S, L31G, F32G, A33G, A34G, P35S
notes: Anti-CD98 masked antibody; MMP9 substrate PLGLAG only

EC50 (read off the curve) [7]: ~90 nM | EC50 (read off the curve) [8]: ~1 nM | EC50 (read off the curve) [9]: ~3 nM
B3: MhM1021-M1 (antibody)
heavy: B1 heavy
light: B1 light with P22G, L23R, G24S, L25A, A26N, G27A
notes: Anti-CD98 masked antibody; uPA substrate and CAPN substrate

Source: patent US20250034274A1 (Daiichi Sankyo, published 2025)
